# Measurements as given in a collection of fitness landscapes (doi:10.1016/j.celrep.2020.107928).
# The full ranking holds about 81,000 sequences; the median of “one-hybrid fitness for binding parS DNA” is about -0.17, and the highest 2% start at about 0.51. The list shows a part of the results.
# B1: Caulobacter ParB omega fusion; a variant is named by its letters at X, in order, B8GW30 (parent)
# chain: MESVVVGEPGMSEGRRGLGRGLSALLGEVDAAPAQAPGEQLGGSREAPIEILQRNPDQPRRTFREEDLEDLSNSIREKGVLQPILVRPSPDTAGEYQIVAGERAWRAAQRAGLKTVPIMVRELDDLAVLEIGIIENVQRADLNVLEEALSYKVLMEKFERTQENIAQTIGKSXSHVANXMRLLXLPDEVQSYLVSGELTAXHARAIAAAADPVALAKQIIEGGLSVRETEALARKAPNLSAGKSKGGRPPRVKDTDTQALESDLSSVLGLDVSIDHRGSTGTLTITYATLEQLDDLCNRLTRGI
# Variants of: B1
# Experiment: one-hybrid fitness for binding parS DNA (scaled: cognate 1, non-cognate 0); higher = stronger binding
# Conditions: with parS DNA site
# Procedure, shortened: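 Pre- and post-selection plasmids were Illumina-sequenced, three replicate libraries were pooled, and any variant with under 10 reads was removed. The libraries were Caulobacter ParB with four specificity codons randomised, selected in E. coli USO through a HIS3 reporter whose site is 19 bp from the promoter. Cells grew 48 hours at 37°C on M9 without histidine, with 0.1 mM IPTG and 5 mM 3-AT. Fitness is the log change in variant-to-wild-type read ratio, rescaled against cognate and non-cognate.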
row,Variant,one-hybrid fitness for binding parS DNA
1,STGS,≤ 0.2
2,FCMS,≤ 0.2
3,NCRG,≤ 0.2
4,EAYA,≤ 0.2
5,AQAR,≤ 0.2
6,FVNT,≤ 0.2
7,WPDS,≤ 0.2
8,RHNC,0.871
9,TTEY,≤ 0.2
10,TNTR,≤ 0.2
11,ILEI,≤ 0.2
12,TKQN,≤ 0.2
13,HMDS,≤ 0.2
14,LYIF,≤ 0.2
15,MKTS,≤ 0.2
16,HRAI,≤ 0.2
17,AVML,≤ 0.2
18,HNIY,≤ 0.2
19,DVLG,≤ 0.2
20,PKHN,≤ 0.2
21,KRSH,≤ 0.2
22,GDFR,≤ 0.2
23,PRLW,≤ 0.2
24,HNPT,≤ 0.2
25,DCSV,≤ 0.2

row,Variant,one-hybrid fitness for binding parS DNA
1,GAPG,≤ 0.2
2,MWTS,≤ 0.2
3,QHDA,≤ 0.2
4,SCKT,≤ 0.2
5,RFQG,0.965
6,PTHN,≤ 0.2
7,CDSS,≤ 0.2
8,FQGS,≤ 0.2
9,YGTR,≤ 0.2
10,RHHY,0.4
11,MRFI,≤ 0.2
12,QRPK,≤ 0.2
13,RFLG,0.891
14,IGAA,≤ 0.2
15,HPRF,≤ 0.2
16,PTGN,≤ 0.2
17,RRWQ,≤ 0.2
18,QAYW,≤ 0.2
19,KGPF,≤ 0.2
20,DGRH,≤ 0.2
21,QCKL,≤ 0.2
22,RNDN,0.226
23,QYVP,≤ 0.2
24,SNRW,≤ 0.2
25,EMVS,≤ 0.2

row,Variant,one-hybrid fitness for binding parS DNA
1,SQKS,≤ 0.2
2,DEPR,≤ 0.2
3,RYCD,≤ 0.2
4,IVQR,≤ 0.2
5,QCHQ,≤ 0.2
6,TCAN,≤ 0.2
7,FHNR,≤ 0.2
8,SSRN,≤ 0.2
9,RFRI,≤ 0.2
10,YPSI,≤ 0.2
11,DLLF,≤ 0.2
12,PVPV,≤ 0.2
13,NSPK,≤ 0.2
14,DHNW,≤ 0.2
15,QSRV,≤ 0.2
16,VLYF,≤ 0.2
17,THVD,≤ 0.2
18,TVHL,≤ 0.2
19,GVRP,≤ 0.2
20,RHEY,0.377
21,VFRY,≤ 0.2
22,EHHS,≤ 0.2
23,AHHG,≤ 0.2
24,ALVY,≤ 0.2
25,NNDM,≤ 0.2

row,Variant,one-hybrid fitness for binding parS DNA
1,AARF,≤ 0.2
2,KRVY,≤ 0.2
3,LRKR,≤ 0.2
4,LKKP,≤ 0.2
5,QEKW,≤ 0.2
6,AYSS,≤ 0.2
7,YWVR,≤ 0.2
8,RKND,≤ 0.2
9,YLKG,≤ 0.2
10,GYPH,≤ 0.2
11,CMGR,≤ 0.2
12,CAHE,≤ 0.2
13,ISVT,≤ 0.2
14,SYAN,≤ 0.2
15,LDRT,≤ 0.2
16,FMTQ,≤ 0.2
17,RSCT,0.809
18,QLQA,≤ 0.2
19,PTGL,≤ 0.2
20,HPTR,≤ 0.2
21,NGVS,≤ 0.2
22,QNRR,≤ 0.2
23,LYTV,≤ 0.2
24,YERV,≤ 0.2
25,QWWG,≤ 0.2

row,Variant,one-hybrid fitness for binding parS DNA
1,AITN,≤ 0.2
2,CAAT,≤ 0.2
3,TGMT,≤ 0.2
4,HRMR,≤ 0.2
5,EHNS,≤ 0.2
6,PQLA,≤ 0.2
7,QTTV,≤ 0.2
8,QKHS,≤ 0.2
9,AMVL,≤ 0.2
10,RSFM,0.292
11,NMFG,≤ 0.2
12,SVGT,≤ 0.2
13,RFWY,0.324
14,MIQR,≤ 0.2
15,WYFS,≤ 0.2
16,ACGW,0.256
17,SLVV,≤ 0.2
18,LKMY,≤ 0.2
19,QHIL,≤ 0.2
20,EPCY,≤ 0.2
21,QRMA,≤ 0.2
22,CHPT,≤ 0.2
23,RLKY,0.704
24,RMLP,≤ 0.2
25,RPKE,≤ 0.2

row,Variant,one-hybrid fitness for binding parS DNA
1,SRPN,≤ 0.2
2,WQDI,≤ 0.2
3,EVKD,≤ 0.2
4,TLTL,≤ 0.2
5,TSYV,≤ 0.2
6,YNHR,≤ 0.2
7,QRPE,≤ 0.2
8,CVES,≤ 0.2
9,GDTR,≤ 0.2
10,KNCV,≤ 0.2
11,QMGR,≤ 0.2
12,EQRR,≤ 0.2
13,TPSK,≤ 0.2
14,LQPS,≤ 0.2
15,MGAS,≤ 0.2
16,ETNK,≤ 0.2
17,IELT,≤ 0.2
18,VKFG,≤ 0.2
19,LACV,≤ 0.2
20,RWEK,≤ 0.2
21,IAVW,≤ 0.2
22,EATK,≤ 0.2
23,GLLQ,≤ 0.2
24,RNER,≤ 0.2
25,NTTN,≤ 0.2

row,Variant,one-hybrid fitness for binding parS DNA
1,KQRP,≤ 0.2
2,CRKR,≤ 0.2
3,HANW,≤ 0.2
4,TNYT,≤ 0.2
5,WCAT,≤ 0.2
6,QWHS,≤ 0.2
7,PTWL,≤ 0.2
8,THLI,≤ 0.2
9,TMIE,≤ 0.2
10,VAGY,≤ 0.2
11,RIKP,≤ 0.2
12,SLKD,≤ 0.2
13,PRAL,≤ 0.2
14,LGKI,≤ 0.2
15,TNYP,≤ 0.2
16,EPFC,≤ 0.2
17,YDEP,0.283
18,TMFT,≤ 0.2
19,RERD,≤ 0.2
20,NHYN,≤ 0.2
21,TMGC,≤ 0.2
22,YFAS,≤ 0.2
23,TSGW,≤ 0.2
24,PYER,≤ 0.2
25,LPSE,≤ 0.2

row,Variant,one-hybrid fitness for binding parS DNA
1,DSWA,≤ 0.2
2,RLPD,≤ 0.2
3,QATW,≤ 0.2
4,GTRG,≤ 0.2
5,TVIL,≤ 0.2
6,LMHT,≤ 0.2
7,TCIC,≤ 0.2
8,YQRA,≤ 0.2
9,EGFL,≤ 0.2
10,LRAG,≤ 0.2
11,VLFS,≤ 0.2
12,KTDG,≤ 0.2
13,NQQW,≤ 0.2
14,TVDR,≤ 0.2
15,NYPL,≤ 0.2
16,VLYQ,≤ 0.2
17,NGGG,≤ 0.2
18,INCV,≤ 0.2
19,SDAM,≤ 0.2
20,QYMR,≤ 0.2
